According to the supplement of paper PMC10369915:
Some of the results follow. No stated cut-off is given here; in the data, active = 3.2 or more and inactive = the rest. Only a few entries rise above the background.

target: SHP2 C-SH2 domain E139D; test: enrichment score (SH2-bound / input frequency) (ratio); bacterial display of known human phosphotyrosine sites (pTyr-Var adds point mutants) read by sequencing; higher = stronger binding; tyrosines were phosphorylated by kinases first; conditions: peptide library: Human pTyr
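Further: displayed peptides selected on beads carrying the immobilized SH2 domain, with library peptides lacking any tyrosine serving as negative controls.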

Enrichment score, inactive:
KSEPEPVYIDEDKMD [STAM2_HUMAN_291] 1.15
AVKRANDYKLDFRRQ [SRRT_HUMAN_175_YA] 1.07
EDPMYSMYAKLQNQP [STAM1_HUMAN_384] 1.08
MNPSYDEYADSDEDQ [SSRP1_HUMAN_441] 1.08
DQDAQDLYDAGVKRK [AXA2L_HUMAN_199] 0.779
TERGDKGYVPSVFIP [STAT4_HUMAN_693] 0.603
STTLSTLYPSTSSLL [STAM1_HUMAN_198] 0.477
CETVISYYTDMEEIG [BCAP_HUMAN_263] 1.49
VMEALSLYTKLMNED [STAM1_HUMAN_371] 1.13
EDSTADEYENDLGIT [SRC8_HUMAN_489_YA] 1.21
SQSLTQIYALPEIPQ [STX17_HUMAN_157] 0.759
ADDLNAQYERRRQEE [BBC3_HUMAN_152] 0.734
MEDHAGTYGLGDRKD [TAU_HUMAN_18] 0.628
KTLVMAVYDFDRFSK [SYT1_HUMAN_230] 2.12
EAPVYSVYSKLHPPA [STAM2_HUMAN_374] 0.742
EKEPTEDYVDVLNPM [STAP1_HUMAN_168] 1.02
KEKTGKEYIPGQPPL [SYEP_HUMAN_872] 1.11
TQAVHSPYDRPGWNP [SYGP1_HUMAN_39_YA] 0.81

target: SHP2 C-SH2 domain wild-type; test: as above; conditions: peptide library: Human pTyr

Enrichment score, inactive:
KSEPEPVYIDEDKMD [STAM2_HUMAN_291] 1.28
AVKRANDYKLDFRRQ [SRRT_HUMAN_175_YA] 0.967
EDPMYSMYAKLQNQP [STAM1_HUMAN_384] 2.33
MNPSYDEYADSDEDQ [SSRP1_HUMAN_441] 1.04
DQDAQDLYDAGVKRK [AXA2L_HUMAN_199] 0.803
TERGDKGYVPSVFIP [STAT4_HUMAN_693] 0.708
STTLSTLYPSTSSLL [STAM1_HUMAN_198] 0.438
CETVISYYTDMEEIG [BCAP_HUMAN_263] 1.41
VMEALSLYTKLMNED [STAM1_HUMAN_371] 1.42
EDSTADEYENDLGIT [SRC8_HUMAN_489_YA] 0.861
SQSLTQIYALPEIPQ [STX17_HUMAN_157] 0.555
ADDLNAQYERRRQEE [BBC3_HUMAN_152] 0.658
MEDHAGTYGLGDRKD [TAU_HUMAN_18] 0.546
KTLVMAVYDFDRFSK [SYT1_HUMAN_230] 2.26
EAPVYSVYSKLHPPA [STAM2_HUMAN_374] 1.44
EKEPTEDYVDVLNPM [STAP1_HUMAN_168] 0.924
KEKTGKEYIPGQPPL [SYEP_HUMAN_872] 1.43
TQAVHSPYDRPGWNP [SYGP1_HUMAN_39_YA] 0.544

target: SHP2 N-SH2 domain L43F; test: as above; conditions: peptide library: Human pTyr

Enrichment score, inactive:
KSEPEPVYIDEDKMD [STAM2_HUMAN_291] 1.31
AVKRANDYKLDFRRQ [SRRT_HUMAN_175_YA] 1.1
EDPMYSMYAKLQNQP [STAM1_HUMAN_384] 0.729
MNPSYDEYADSDEDQ [SSRP1_HUMAN_441] 1.11
DQDAQDLYDAGVKRK [AXA2L_HUMAN_199] 0.725
TERGDKGYVPSVFIP [STAT4_HUMAN_693] 0.628
STTLSTLYPSTSSLL [STAM1_HUMAN_198] 0.535
CETVISYYTDMEEIG [BCAP_HUMAN_263] 1.34
VMEALSLYTKLMNED [STAM1_HUMAN_371] 1.04
EDSTADEYENDLGIT [SRC8_HUMAN_489_YA] 1.15
SQSLTQIYALPEIPQ [STX17_HUMAN_157] 2.23
ADDLNAQYERRRQEE [BBC3_HUMAN_152] 0.838
MEDHAGTYGLGDRKD [TAU_HUMAN_18] 0.635
KTLVMAVYDFDRFSK [SYT1_HUMAN_230] 2.38
EAPVYSVYSKLHPPA [STAM2_HUMAN_374] 0.782
EKEPTEDYVDVLNPM [STAP1_HUMAN_168] 0.951
KEKTGKEYIPGQPPL [SYEP_HUMAN_872] 1.13
TQAVHSPYDRPGWNP [SYGP1_HUMAN_39_YA] 0.561

target: SHP2 N-SH2 domain T42A; test: as above; conditions: peptide library: Human pTyr

Enrichment score, inactive:
KSEPEPVYIDEDKMD [STAM2_HUMAN_291] 0.932
AVKRANDYKLDFRRQ [SRRT_HUMAN_175_YA] 1.31
EDPMYSMYAKLQNQP [STAM1_HUMAN_384] 0.715
MNPSYDEYADSDEDQ [SSRP1_HUMAN_441] 1.01
DQDAQDLYDAGVKRK [AXA2L_HUMAN_199] 0.736
TERGDKGYVPSVFIP [STAT4_HUMAN_693] 0.61
STTLSTLYPSTSSLL [STAM1_HUMAN_198] 0.446
CETVISYYTDMEEIG [BCAP_HUMAN_263] 1.48
VMEALSLYTKLMNED [STAM1_HUMAN_371] 1.06
EDSTADEYENDLGIT [SRC8_HUMAN_489_YA] 0.958
SQSLTQIYALPEIPQ [STX17_HUMAN_157] 0.546
ADDLNAQYERRRQEE [BBC3_HUMAN_152] 0.882
MEDHAGTYGLGDRKD [TAU_HUMAN_18] 0.637
KTLVMAVYDFDRFSK [SYT1_HUMAN_230] 2.37
EAPVYSVYSKLHPPA [STAM2_HUMAN_374] 0.618
EKEPTEDYVDVLNPM [STAP1_HUMAN_168] 1.29
KEKTGKEYIPGQPPL [SYEP_HUMAN_872] 0.963
TQAVHSPYDRPGWNP [SYGP1_HUMAN_39_YA] 0.665

target: SHP2 N-SH2 domain T52S; test: as above; conditions: peptide library: Human pTyr

Enrichment score, inactive:
KSEPEPVYIDEDKMD [STAM2_HUMAN_291] 1.18
AVKRANDYKLDFRRQ [SRRT_HUMAN_175_YA] 1.1
EDPMYSMYAKLQNQP [STAM1_HUMAN_384] 0.626
MNPSYDEYADSDEDQ [SSRP1_HUMAN_441] 1.08
DQDAQDLYDAGVKRK [AXA2L_HUMAN_199] 0.734
TERGDKGYVPSVFIP [STAT4_HUMAN_693] 0.477
STTLSTLYPSTSSLL [STAM1_HUMAN_198] 0.452
CETVISYYTDMEEIG [BCAP_HUMAN_263] 1.85
VMEALSLYTKLMNED [STAM1_HUMAN_371] 1.09
EDSTADEYENDLGIT [SRC8_HUMAN_489_YA] 1.23
SQSLTQIYALPEIPQ [STX17_HUMAN_157] 0.755
ADDLNAQYERRRQEE [BBC3_HUMAN_152] 0.757
MEDHAGTYGLGDRKD [TAU_HUMAN_18] 0.517
KTLVMAVYDFDRFSK [SYT1_HUMAN_230] 2.44
EAPVYSVYSKLHPPA [STAM2_HUMAN_374] 0.662
EKEPTEDYVDVLNPM [STAP1_HUMAN_168] 0.991
KEKTGKEYIPGQPPL [SYEP_HUMAN_872] 1.45
TQAVHSPYDRPGWNP [SYGP1_HUMAN_39_YA] 0.652

target: SHP2 N-SH2 domain wild-type; test: as above; conditions: peptide library: Human pTyr

Enrichment score, inactive:
KSEPEPVYIDEDKMD [STAM2_HUMAN_291] 1.05
AVKRANDYKLDFRRQ [SRRT_HUMAN_175_YA] 1.43
EDPMYSMYAKLQNQP [STAM1_HUMAN_384] 0.682
MNPSYDEYADSDEDQ [SSRP1_HUMAN_441] 1.41
DQDAQDLYDAGVKRK [AXA2L_HUMAN_199] 0.652
TERGDKGYVPSVFIP [STAT4_HUMAN_693] 0.68
STTLSTLYPSTSSLL [STAM1_HUMAN_198] 0.389
CETVISYYTDMEEIG [BCAP_HUMAN_263] 1.7
VMEALSLYTKLMNED [STAM1_HUMAN_371] 1.12
EDSTADEYENDLGIT [SRC8_HUMAN_489_YA] 1.36
SQSLTQIYALPEIPQ [STX17_HUMAN_157] 0.638
ADDLNAQYERRRQEE [BBC3_HUMAN_152] 0.893
MEDHAGTYGLGDRKD [TAU_HUMAN_18] 0.733
KTLVMAVYDFDRFSK [SYT1_HUMAN_230] 3.02
EAPVYSVYSKLHPPA [STAM2_HUMAN_374] 0.763
EKEPTEDYVDVLNPM [STAP1_HUMAN_168] 1.14
KEKTGKEYIPGQPPL [SYEP_HUMAN_872] 1.44
TQAVHSPYDRPGWNP [SYGP1_HUMAN_39_YA] 0.63
